Consider 12 substances from PMC9507357.

Chains of the proteins cited; added tags and fusions are not shown.
UniProt Q00987: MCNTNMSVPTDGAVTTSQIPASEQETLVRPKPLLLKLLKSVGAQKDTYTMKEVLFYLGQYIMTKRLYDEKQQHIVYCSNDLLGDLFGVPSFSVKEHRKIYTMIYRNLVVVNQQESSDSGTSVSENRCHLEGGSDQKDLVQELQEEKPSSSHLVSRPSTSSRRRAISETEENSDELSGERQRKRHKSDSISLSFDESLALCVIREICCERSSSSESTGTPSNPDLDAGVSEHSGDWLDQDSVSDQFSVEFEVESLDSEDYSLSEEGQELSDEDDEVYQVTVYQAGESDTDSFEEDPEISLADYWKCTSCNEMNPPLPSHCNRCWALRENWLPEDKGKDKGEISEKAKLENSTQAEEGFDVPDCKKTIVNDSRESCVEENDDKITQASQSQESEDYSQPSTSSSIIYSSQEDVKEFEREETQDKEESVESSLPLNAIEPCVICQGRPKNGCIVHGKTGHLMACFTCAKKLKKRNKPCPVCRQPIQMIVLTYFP
UniProt Q13547: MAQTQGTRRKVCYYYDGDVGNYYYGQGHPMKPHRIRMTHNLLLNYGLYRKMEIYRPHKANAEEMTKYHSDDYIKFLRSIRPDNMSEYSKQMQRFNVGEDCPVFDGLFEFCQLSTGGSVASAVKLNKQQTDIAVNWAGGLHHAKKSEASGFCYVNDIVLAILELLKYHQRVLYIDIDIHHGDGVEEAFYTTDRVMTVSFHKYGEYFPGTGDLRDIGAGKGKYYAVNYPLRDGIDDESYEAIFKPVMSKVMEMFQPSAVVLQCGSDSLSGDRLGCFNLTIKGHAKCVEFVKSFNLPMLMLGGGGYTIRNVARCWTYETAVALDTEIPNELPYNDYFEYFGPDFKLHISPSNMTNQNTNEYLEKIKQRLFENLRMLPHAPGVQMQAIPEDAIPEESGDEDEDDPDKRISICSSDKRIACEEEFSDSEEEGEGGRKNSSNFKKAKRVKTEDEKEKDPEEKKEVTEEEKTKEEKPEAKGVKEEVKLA
UniProt O75376: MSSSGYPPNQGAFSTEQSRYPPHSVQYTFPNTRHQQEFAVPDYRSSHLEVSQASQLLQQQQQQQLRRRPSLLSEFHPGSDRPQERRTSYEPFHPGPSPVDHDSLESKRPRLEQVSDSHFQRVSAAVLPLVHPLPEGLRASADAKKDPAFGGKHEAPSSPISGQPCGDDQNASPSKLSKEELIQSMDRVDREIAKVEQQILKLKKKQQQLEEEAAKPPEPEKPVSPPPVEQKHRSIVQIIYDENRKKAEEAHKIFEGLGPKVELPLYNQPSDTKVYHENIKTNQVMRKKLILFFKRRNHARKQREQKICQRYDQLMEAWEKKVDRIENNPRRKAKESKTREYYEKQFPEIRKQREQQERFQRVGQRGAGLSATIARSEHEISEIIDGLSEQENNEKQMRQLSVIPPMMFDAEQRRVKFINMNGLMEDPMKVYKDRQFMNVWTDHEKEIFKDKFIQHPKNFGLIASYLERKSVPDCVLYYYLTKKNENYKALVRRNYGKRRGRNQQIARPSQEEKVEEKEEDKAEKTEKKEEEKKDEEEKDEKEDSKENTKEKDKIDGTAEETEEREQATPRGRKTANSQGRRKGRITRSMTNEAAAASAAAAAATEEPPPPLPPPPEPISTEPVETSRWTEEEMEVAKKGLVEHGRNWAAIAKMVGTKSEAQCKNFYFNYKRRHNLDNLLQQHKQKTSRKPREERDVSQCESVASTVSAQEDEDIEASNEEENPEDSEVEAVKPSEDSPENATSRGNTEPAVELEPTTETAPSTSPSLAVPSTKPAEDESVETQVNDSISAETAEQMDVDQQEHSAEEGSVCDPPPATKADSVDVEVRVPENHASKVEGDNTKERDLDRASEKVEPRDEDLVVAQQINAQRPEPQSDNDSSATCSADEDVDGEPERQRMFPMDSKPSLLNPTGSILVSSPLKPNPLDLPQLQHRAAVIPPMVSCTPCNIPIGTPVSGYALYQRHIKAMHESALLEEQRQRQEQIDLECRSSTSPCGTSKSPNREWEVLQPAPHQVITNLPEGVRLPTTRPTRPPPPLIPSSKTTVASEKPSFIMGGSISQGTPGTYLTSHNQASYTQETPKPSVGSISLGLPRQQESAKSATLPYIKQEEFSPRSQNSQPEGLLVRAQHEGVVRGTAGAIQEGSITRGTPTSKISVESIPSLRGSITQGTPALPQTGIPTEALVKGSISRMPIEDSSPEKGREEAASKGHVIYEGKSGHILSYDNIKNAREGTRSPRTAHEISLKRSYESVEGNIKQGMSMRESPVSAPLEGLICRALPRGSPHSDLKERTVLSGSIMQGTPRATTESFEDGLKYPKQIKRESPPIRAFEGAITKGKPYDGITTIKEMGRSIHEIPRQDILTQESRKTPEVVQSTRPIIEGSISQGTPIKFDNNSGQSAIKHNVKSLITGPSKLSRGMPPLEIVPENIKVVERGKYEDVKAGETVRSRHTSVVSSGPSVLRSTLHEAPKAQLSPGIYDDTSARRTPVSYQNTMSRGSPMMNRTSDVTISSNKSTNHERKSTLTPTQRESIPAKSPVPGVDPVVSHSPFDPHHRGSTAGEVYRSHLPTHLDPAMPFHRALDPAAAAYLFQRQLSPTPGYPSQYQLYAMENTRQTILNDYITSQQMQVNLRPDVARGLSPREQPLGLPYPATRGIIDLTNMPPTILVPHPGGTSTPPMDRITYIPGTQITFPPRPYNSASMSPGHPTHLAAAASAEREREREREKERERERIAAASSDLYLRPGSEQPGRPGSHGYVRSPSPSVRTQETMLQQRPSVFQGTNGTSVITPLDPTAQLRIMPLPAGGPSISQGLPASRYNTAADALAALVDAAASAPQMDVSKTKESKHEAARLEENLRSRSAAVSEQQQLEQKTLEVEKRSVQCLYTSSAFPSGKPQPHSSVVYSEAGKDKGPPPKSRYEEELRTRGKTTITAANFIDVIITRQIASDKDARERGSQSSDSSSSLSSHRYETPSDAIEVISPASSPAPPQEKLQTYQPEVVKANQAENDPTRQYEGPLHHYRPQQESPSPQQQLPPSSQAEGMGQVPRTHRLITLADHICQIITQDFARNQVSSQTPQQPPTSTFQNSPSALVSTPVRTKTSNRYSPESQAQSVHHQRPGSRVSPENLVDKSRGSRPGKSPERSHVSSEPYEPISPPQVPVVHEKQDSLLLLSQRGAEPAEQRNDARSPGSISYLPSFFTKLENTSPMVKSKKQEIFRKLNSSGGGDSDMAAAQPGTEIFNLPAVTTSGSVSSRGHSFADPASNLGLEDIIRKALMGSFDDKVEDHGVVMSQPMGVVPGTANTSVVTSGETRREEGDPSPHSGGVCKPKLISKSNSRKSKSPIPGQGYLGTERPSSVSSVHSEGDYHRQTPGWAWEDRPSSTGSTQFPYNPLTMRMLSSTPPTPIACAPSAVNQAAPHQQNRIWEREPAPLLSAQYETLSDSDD
UniProt O15379: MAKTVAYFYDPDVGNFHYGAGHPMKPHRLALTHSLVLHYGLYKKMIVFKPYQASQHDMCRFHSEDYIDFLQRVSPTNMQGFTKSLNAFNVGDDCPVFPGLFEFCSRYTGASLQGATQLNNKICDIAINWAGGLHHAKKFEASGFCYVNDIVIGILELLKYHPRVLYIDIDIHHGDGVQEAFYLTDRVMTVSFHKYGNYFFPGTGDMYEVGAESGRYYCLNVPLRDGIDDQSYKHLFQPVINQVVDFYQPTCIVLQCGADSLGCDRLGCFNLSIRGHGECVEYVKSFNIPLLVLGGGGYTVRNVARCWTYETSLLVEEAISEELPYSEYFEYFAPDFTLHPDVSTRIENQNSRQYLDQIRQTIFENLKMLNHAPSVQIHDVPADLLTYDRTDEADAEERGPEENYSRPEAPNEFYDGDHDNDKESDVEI

These are yes or no findings as the source states them, for the method shown. In cells and extracts the contact can be indirect. Some entries that bind do so weakly or less than the wild type.

Assay [1] deals with FLAG-tagged OVOL2 (OVO-like zinc finger 2) (UniProt Q9BRP0). Kind of assay: co-IP; exogenous (transfected) proteins; anti-FLAG or Myc-agarose beads 4 h at 4 °C, immunoblot; lysis buffer 50 mM Tris pH 8.0, 500 mM NaCl, 0.5% Nonidet P-40, 1 mM DTT; Figure 6I: MCF7 or ZR75-1 with MYC-MDM2 plus FLAG-OVOL2, with or without 10 µM nutlin-3, anti-FLAG IP. In general terms: A western blot detects proteins with antibodies after separation by electrophoresis.

Assay [2] concerns the target OVOL2, exogenous (transfected; tag not given) (UniProt Q9BRP0). The assay is described as above.
Assay [3] shares this target. Kind of assay: co-IP; OVOL2–MDM2 co-IP in cells with increasing p53 overexpression (Figure S7J) or with co-expressed WT p53 or p53 mutants (Figure S7K).
Assay [4] deals with MDM2 (mouse double minute 2 homolog), endogenous (human (endogenous in MCF7, ZR75-1)) (UniProt Q00987). Kind of assay: co-IP; endogenous proteins; MCF-7 or ZR75-1 lysates (p53 shRNA or control shRNA, normoxia or 1% O2) precipitated with anti-MDM2 or normal IgG, immunoblot.
The target in the next assay is His-tagged OVOL2 protein (UniProt Q9BRP0). Kind of assay: pull-down; His pull-down: purified His-fusion protein bound to nickel beads incubated with in vitro translated protein for 4 h at 4 °C; bound proteins by immunoblot; only the target purified.
For assay [5], the target named is OVOL2 (OVO-like zinc finger 2), endogenous (human (endogenous in MCF7, MDA-MB-231, ZR75-1)) (UniProt Q9BRP0). The experiment in a line: co-IP; endogenous proteins; MCF7, MDA-MB-231 or ZR75-1 lysates precipitated with anti-OVOL2 or normal IgG, immunoblot; lysis buffer 50 mM Tris pH 8.0, 500 mM NaCl, 0.5% Nonidet P-40, 1 mM DTT; also with or without DNase I and after NCoR shRNA.

The target of assay [6] is OVOL2, exogenous (transfected; tag not given) (UniProt Q9BRP0). The experiment in a line: co-IP; Co-IP combined with Re-IP: MDA-MB-231 cells transfected with indicated plasmids, anti-FLAG agarose, elution with FLAG peptide, re-immunoprecipitation with anti-MYC or normal IgG, immunoblot.
The target of assay [7] is OVOL2 (101–240) containing four C2H2 zinc finger domains (UniProt Q9BRP0). The experiment in a line: pull-down; His pull-down: purified His-fusion protein bound to nickel beads incubated with in vitro translated protein for 4 h at 4 °C; bound proteins by immunoblot; only the target purified.
Assay [8] deals with T1, OVOL2 (241–275) containing the C-terminal fragment (UniProt Q9BRP0).
T1 sequence: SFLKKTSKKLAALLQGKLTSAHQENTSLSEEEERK
The description is as above.

Assay [9] concerns the target T2, OVOL2 (1–100) containing the SNAG (snail/gfi-1) domain (UniProt Q9BRP0).
T2 sequence: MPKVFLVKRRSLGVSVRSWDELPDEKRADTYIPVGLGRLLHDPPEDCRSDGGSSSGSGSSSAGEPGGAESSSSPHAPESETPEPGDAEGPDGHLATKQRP
Described as above.

For the substance “MYC-tagged MDM2 (from UniProt Q00987 1-491) (enzyme)”, the binding entry in [1], in [2] and in [3] was “binds” in each case.
For the substance “OVOL2 (OVO-like zinc finger 2), endogenous (from UniProt Q9BRP0 1-275)”, in assay [4], the binding result is given as “binds”.
Regarding “in vitro translated p53 (from UniProt P04637 1-393)”, in the assay with His-tagged OVOL2 protein, the binding entry is given as “no binding”.
For “MDM2 (mouse double minute 2 homolog), endogenous (from UniProt Q00987 1-491) (enzyme)”, the binding entry in [5] is “binds”.
Consider “in vitro translated HDAC1 (from UniProt Q13547 1-482) (enzyme)”, for which the binding result in the assay with His-tagged OVOL2 protein is on record as “no binding”.
In the case of “NCoR (nuclear receptor co-repressor), exogenous (transfected; tag not told in the text) (from UniProt O75376 1-2440)”, the binding entry in [2] and in [6] was “binds” each time.
As to “NCoR (nuclear receptor co-repressor), endogenous (from UniProt O75376 1-2440)”, the binding result in assay [5] was “binds”.
With “in vitro translated MDM2 (from UniProt Q00987 1-491) (enzyme)”, the binding result with His-tagged OVOL2 protein is on record as “binds”.
For the substance “p53 tumor suppressor protein, endogenous (from UniProt P04637 1-393)”, the binding entry in [5] is recorded as “no binding”.
On to “in vitro translated NCoR (from UniProt O75376 1-2440)”, for which the binding result is “binds” in assay [7], “no binding” in assay [8], “binds” with His-tagged OVOL2 protein and “no binding” in [9].
With “in vitro translated HDAC3 (from UniProt O15379 1-428) (enzyme)”, the binding result with His-tagged OVOL2 protein is “no binding”.
As for “p53, exogenous wild type (transfected; tag not told in the text) (from UniProt P04637 1-393)”, in assay [2], the binding result is “no binding”.
